From PubChem BioAssay (NCATS)
Values joined by “and” are separate entries in the source; they are usually repeats but may differ in a detail not shown here. Equal entries are not always repeated. Inconclusive results, whose numbers are uncertain, are shown with a selection of clear calls. For part of these data: Potencies of inconclusive entries are doubtful fits and often do not repeat. Some structures have more than one record in an assay (separate samples or runs), and their calls can disagree. Active and inactive are the calls of the source. The call rests on the fitted dose curve; in most records, active means well fitted curve in the direction sought with a large enough effect; inconclusive means small, poorly fitted or top-dose-only effect, or another doubt; inactive means no such curve, though single readings can be large; an effect the other way counts as inactive or inconclusive.

Columns and labels:
CRL-7250 = normal cell line; experiment: Cytotoxic Profiling of Annotated Libraries Using Quantitative High-Throughput Screening (AID 1296008); conditions: Five cell lines viability, CellTiter-Glo ATP luminescence, 48-72 h; max response: stronger effect = lower value; further: nearly all actives have a fitted effect of over 60% in size; on max response: on the % scale 0 is the no-effect control and ±100 the full control effect
Procedure, shortened: (§1)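 Compounds were pin-transferred onto cells and incubated 48 or 72 hr at 37 degree Celsius, 95% humidity. CellTiter-Glo was added, plates sat 10 min at room temperature, then ATP-coupled luminescence was imaged as the viability read-out.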

HEK293 = experiment: as above; conditions: Five cell lines viability, CellTiter-Glo ATP luminescence, 48-72 h; max response: stronger effect = lower value
Procedure, shortened: as §1

KB-3-1 = experiment: as above; conditions: Five cell lines viability, CellTiter-Glo ATP luminescence, 48-72 h; max response: stronger effect = lower value
Procedure, shortened: as §1

NIH3T3 = experiment: as above; conditions: Five cell lines viability, CellTiter-Glo ATP luminescence, 48-72 h; max response: stronger effect = lower value
Procedure, shortened: as §1

MCC-13 = experiment: qHTS assay to identify novel small-molecules to repurpose for Merkel cell carcinoma treatment (AID 1296009); conditions: MCC and control cell lines, CellTiter-Glo viability, 72 h; series mostly up to 46 µM; further: nearly all actives have a fitted effect of over 60% in size; on activity change, negative = cytotoxicity: on the % scale 0 is the no-effect control and ±100 the full control effect
Procedure, shortened: (§2)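 qHTS format: cells treated with library compounds in DMSO across 8 (NPC) or 11 (MIPE) concentrations. Readout after 72 hr at 37 degree celsius was CellTiter-Glo luminescence.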

MCC-26 = experiment: as above; conditions: MCC and control cell lines, CellTiter-Glo viability, 72 h; series mostly up to 46 µM
Procedure, shortened: as §2

MKL-2 = experiment: as above; conditions: MCC and control cell lines, CellTiter-Glo viability, 72 h; series mostly up to 46 µM
Procedure, shortened: as §2

WaGa = experiment: as above; conditions: MCC and control cell lines, CellTiter-Glo viability, 72 h; series mostly up to 46 µM
Procedure, shortened: as §2

C33A = experiment: Primary qHTS to identify gynecologic anti-cancer compounds using libraries of approved drugs and bioactive compounds (AID 1345084); conditions: Gynecologic cancer cell panel viability, ATPlite luminescence, 48 h; series mostly up to 57.5 µM; further: nearly all actives have a fitted effect of over 55% in size
Procedure, shortened: (§3)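 Cytotoxicity screen measuring ATP content by luciferase luminescence. Each compound is applied at five concentrations for 48 h at 37 C with 5% CO2.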

CAOV3 = experiment: as above; conditions: Gynecologic cancer cell panel viability, ATPlite luminescence, 48 h; series mostly up to 57.5 µM
Procedure, shortened: as §3

CASKI = experiment: as above; conditions: Gynecologic cancer cell panel viability, ATPlite luminescence, 48 h; activity change, negative = cytotoxicity: at 57.5 µM (top of the series)
Procedure, shortened: as §3

HeLa = experiment: as above; conditions: Gynecologic cancer cell panel viability, ATPlite luminescence, 48 h; series mostly up to 57.5 µM
Procedure, shortened: as §3

HaCat = experiment: Cytotoxic Profiling of Annotated Libraries Using Quantitative High-Throughput Screening (AID 1296008); conditions: Five cell lines viability, CellTiter-Glo ATP luminescence, 48-72 h; max response: stronger effect = lower value; further: nearly all actives have a fitted effect of over 60% in size; on max response: on the % scale 0 is the no-effect control and ±100 the full control effect
Procedure, shortened: as §1

MKL-1 = experiment: qHTS assay to identify novel small-molecules to repurpose for Merkel cell carcinoma treatment (AID 1296009); conditions: MCC and control cell lines, CellTiter-Glo viability, 72 h; series mostly up to 46 µM; further: nearly all actives have a fitted effect of over 60% in size; on activity change, negative = cytotoxicity: on the % scale 0 is the no-effect control and ±100 the full control effect
Procedure, shortened: as §2

UISO = experiment: as above; conditions: MCC and control cell lines, CellTiter-Glo viability, 72 h; series mostly up to 46 µM
Procedure, shortened: as §2

W2 = experiment: qHTS profiling for inhibitors of Plasmodium falciparum proliferation (AID 504749); further: nearly all actives have a fitted effect of over 60% in size; conditions: P. falciparum in erythrocytes, SYBR Green DNA, 72 h; series mostly up to 28.7 µM
Procedure, shortened: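 Parasite proliferation within erythrocytes, 72 h exposure. Endpoint: SYBR Green I fluorescence after overnight lysis at room temperature. Controls: 0.29 uM artemisinin, DMSO.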

astro = experiment: Drug repurposing screens with cells derived from glioblastoma tumor samples (AID 1345199); conditions: viability, ATP luminescence, 48 h; activity, negative = cell killing: at 45.9 µM (top of the series); further: nearly all actives have a fitted effect of over 40% in size
Procedure, shortened: (§4)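 Four patient lines of CD133+ GBM neurospheres were screened at several concentrations; hits were retested in those lines plus three slower-growing GBM lines, using 48-hour treatment and ATP-based viability.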

[1] = qHTS assay to identify inhibitors of the type 1 interferon - major histocompatibility complex class I in skeletal muscle: Counter screen cell viability and HiBit confirmation (AID 1347412); conditions: iHSKM muscle cells + IFN-b, HiBiT or CellTiter-Glo, 24 h; further: nearly all actives have a fitted effect of over 60% in size
Procedure, shortened: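 HLA-B*08:01–HiBiT knock-in immortalized human myoblasts (C25cl48) stimulated with 4.0 ng/ml human IFN-beta and dosed with compound in a 12-point 1:3 titration (top final 46 uM). After 24 hrs at 37 C, HiBiT lytic luminescence or CellTiter Glo ATP read out.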

Es-2 = experiment: Primary qHTS to identify gynecologic anti-cancer compounds using libraries of approved drugs and bioactive compounds (AID 1345084); conditions: Gynecologic cancer cell panel viability, ATPlite luminescence, 48 h; series mostly up to 57.5 µM; further: nearly all actives have a fitted effect of over 55% in size
Procedure, shortened: as §3

[2] = Drug repurposing screens with cells derived from glioblastoma tumor samples (AID 1345199); conditions: GBM patient neurospheres viability, ATP luminescence, 48 h; Potency: tumour line A unless noted; activity, negative = cell killing: at 46 µM (top of the series), tumour line A unless noted; further: nearly all actives have a fitted effect of over 40% in size
Procedure, shortened: as §4
Potency means the concentration at half of the fitted maximal effect; tags describe the fitted curve by direction and shape.

In the case of `Cc1cnc(Nc2ccc(F)cc2Cl)nc1-c1c[nH]c(C(=O)N[C@H](CO)c2cccc(Cl)c2)c1`, the Potency (CRL-7250) was active: 18.7 µM and active: 20.6 µM, the Potency (HEK293) was inconclusive: 29.6 µM [inhibitor, single point] and the max response (HEK293) was inactive: -111%. For the same compound, the Potency (KB-3-1) was inconclusive: 37.2 µM [inhibitor, single point] and inconclusive: 25.9 µM [inhibitor, partial curve, poor fit], the Potency (NIH3T3) was inconclusive: 16.4 µM [inhibitor, partial curve, poor fit] and the Potency (MCC-13) was inconclusive: 11.8 µM [inhibitor, partial curve]. For the same compound, the Potency (MCC-26) was inconclusive: 18.7 µM [inhibitor, single point], the Potency (MKL-2) was active: 14.8 µM and the Potency (WaGa) was inconclusive: 26.4 µM [inhibitor, single point]. For the same compound, the Potency (C33A) was inconclusive: 39.8 µM [cytotoxic, single point], the Potency (CAOV3) was inconclusive: 39.8 µM [cytotoxic, single point] and the Potency (CASKI) was active: 25.1 µM. The Potency (HeLa) was active: 31.6 µM.

For `NC(=O)NO`, the Potency (CRL-7250) was inconclusive: 29.9 µM [inhibitor, single point], the Potency (HEK293) was active: 0.0526 µM and the max response (HEK293) was inactive: 4.27%. The Potency (HaCat) was inconclusive: 37.2 µM [inhibitor, single point], the Potency (MCC-13) was active: 2.96 µM and the Potency (MCC-26) was active: 10.5 µM. For the same compound, the Potency (MKL-1) was inconclusive: 3.72 µM [inhibitor, full curve], the Potency (MKL-2) was active: 0.372 µM and the Potency (UISO) was “inactive and active: 4.69 µM”. For the same compound, the Potency (WaGa) was inconclusive: 1.48 µM [inhibitor, full curve] and the Potency (C33A) was “inactive”.

For `Cc1cc2c(C(C)C)c(O)c(O)c(C=O)c2c(O)c1-c1c(C)cc2c(C(C)C)c(O)c(O)c(C=O)c2c1O`, the Potency (W2) was inconclusive: 19 µM [inhibitor, single point], the Potency (CRL-7250) was inconclusive: 16.6 µM [inhibitor, partial curve] and the Potency (HEK293) was inconclusive: 29.9 µM [inhibitor, single point] and active: 23.5 µM. The Potency (HaCat) was inconclusive: 26.6 µM [inhibitor, single point] and inconclusive: 18.7 µM [inhibitor, partial curve], the Potency (KB-3-1) was inconclusive: 29.1 µM [inhibitor, single point] and the Potency (NIH3T3) was inconclusive: 33.5 µM [inhibitor, single point] and inconclusive: 20.9 µM [inhibitor, partial curve]. For the same compound, the Potency (MCC-13) was “inactive”, the Potency (MKL-1) was inconclusive: 26.4 µM [inhibitor, single point] and the Potency (MKL-2) was inconclusive: 15 µM [inhibitor, partial curve, poor fit] and inconclusive: 26.4 µM [inhibitor, single point]. The Potency (UISO) was active: 21.1 µM and inconclusive: 33.2 µM [inhibitor, single point], the Potency (WaGa) was inconclusive: 29.6 µM [inhibitor, single point] and the Potency (astro) was inconclusive: 35.5 µM [inhibitor, single point]. For the same compound, the Potency ([1]; HiBiT) was inconclusive: 31.3 µM [inhibitor, partial curve], the activity change, negative = inhibition ([1]; Viability, at 45.9 µM (top of the series)) was inactive: -17.9% and the Potency (C33A) was inconclusive: 39.8 µM [cytotoxic, single point]. The Potency (CAOV3) was inconclusive: 25.1 µM [cytotoxic, single point] and the Potency (HeLa) was inconclusive: 39.8 µM [cytotoxic, single point].

In the case of `Cc1ncc(-c2ccnc(Nc3ccc(S(C)(=O)=O)cc3)n2)n1C(C)C`, the Potency (CRL-7250) was active: 3.72 µM, the Potency (HEK293) was active: 4.61 µM and the Potency (HaCat) was active: 8.33 µM and active: 5.8 µM. For the same compound, the Potency (NIH3T3) was inconclusive: 20.6 µM [inhibitor, single point], the Potency (MCC-13) was inconclusive: 7.43 µM [inhibitor, full curve] and the Potency (MCC-26) was inconclusive: 8.33 µM [inhibitor, full curve]. The Potency (MKL-1) was inconclusive: 6.62 µM [inhibitor, full curve], the Potency (MKL-2) was inconclusive: 10.5 µM [inhibitor, full curve] and the Potency (WaGa) was inconclusive: 6.62 µM [inhibitor, full curve]. The Potency (C33A) was inconclusive: 8.91 µM [cytotoxic, full curve, poor fit], the Potency (CAOV3) was inconclusive: 3.16 µM [cytotoxic, full curve] and the Potency (CASKI) was active: 7.08 µM. The Potency (Es-2) was active: 10 µM and the Potency (HeLa) was active: 7.08 µM.

With `CC(C(=O)O)c1ccc2c(c1)CC(=O)c1ccccc1S2` (stereo not drawn) the max response (CRL-7250) was inactive: -3.49% and inactive: 3.11%, the outcome (CRL-7250) was “inactive” and the max response (NIH3T3) was inactive: 4.16% and inactive: -0.0725%. For the same compound, the outcome (NIH3T3) was “inactive”, the Potency (MKL-1) was inconclusive: 9.35 µM [inhibitor, partial curve] and the Potency (MKL-2) was inconclusive: 0.418 µM [inhibitor, full curve, poor fit]. The Potency [2] was “inactive” and the Potency (CAOV3) was inconclusive: 0.282 µM [rising, full curve, poor fit].
